Results taken from the supplement of paper PMC10126150.
Sequences with one replicate were seen in a single cluster, so their values are uncertain.

The sequences below were run on ATP (assay: switch fluorescence ratio, 500 uM ATP over buffer (Cy3 cluster intensity, sum of 5 cycles each) (fold (ratio)); higher = stronger signal-on switching upon ATP binding; sequences stand for … in TCGTCGGCAGCGTCAGATGTGTATAAGAGACAGTTTTTTTTTTTTTTTTTTTTTTTTT…TC). Conditions: aptamer strand: ATP DNA aptamer (quencher-CACCTGGGGGAGTATTGCGGAGGAAGG + anchor), 100 nM annealed; ATP concentration: 500 uM; one replicate.
Summary of the method: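 The quencher-labelled ATP aptamer, at 100 nM, was annealed to Cy3-labelled switching-strand clusters on a modified Illumina MiSeq flow-cell. The clusters were imaged in selection buffer, then after 15 min with 500 uM ATP at 22 °C, and this buffer/ATP cycle ran five times with NaOH stripping and re-annealing between runs. Per-cluster fluorescence ratios, summed target-cycle over summed buffer-cycle Cy3 intensity, were averaged per switch-domain sequence. Clusters outside 100-1000 RFU were excluded.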
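Note: ATP exposure 15 min at 22 °C before imaging.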

Sequence	switch fluorescence ratio
CTATCGGTTT	0.982
GGAGGTCGT	0.973
TCGTTGGCA	1.03
AATACTCGTT	1.05
AGTTTAATAT	0.972
ACCTCCATG	1.09
ACTAGGTGG	0.976
AGTTCTAATA	1
TGCGCGTAGC	0.969
TTGTTCTTTC	1.01
CCCTATCCCT	1.09
ATGCGGGAGT	1.03
TCACCGGGTT	1.15
CGTCTCGAAG	0.967
AAAAGTACA	1.03
TTTTGTATAG	1.01
CTACATATTG	1.04
AAAGGATTGT	0.94
CGGTGTGATG	1.03
CGGTGTAGGC	1.04
GGACCGCTTG	1.02
GACGTAGGCG	1.11
CATGACTGCG	0.972
CGAGCTTCTG	0.979
CACAGAGGAA	1
ACGGGGGC	1.02

Sequence	switch fluorescence ratio
GTAAGACGTA	1.07
GGCTACCTAG	1.01
CCCAAGGTAT	1.15
CAGCATTAAA	1.71
CGGATACGGG	1.01
CTTTGGGCTT	1.02
ACCCTCTTCC	2.16
CACAAGGGT	0.959
GCAGTAAGGG	1.05
TTCCGAAGA	1.3
AAATCCTTGG	0.994
GTTGTCGTT	0.978
ATGTCAGTCA	1
CTAAGCCGAG	1.06
CTAGTCGTTG	1.05
AGCGGTGGGG	1
CTAGCACTAT	1.21
CATTATGCTG	0.968
ACTGCCTGCA	1.09
GAGAAAATAG	1.01
CTGGAAGCGG	1.06
TTTAGAATT	1.05
GGTCACCGC	0.989
TTTAACCTCG	1.02
GGGGACAAAG	0.969
TTCGGTCTAG	0.976

Sequence	switch fluorescence ratio
GCGAGGCGGG	1.07
TTCTTGTTAG	0.985
CCGTTCCAGA	1.03
CAGCATGAAT	1.02
CATGATCGTA	1
CGATGTAAAT	1.05
GCTATCATCA	1.02
ACGAACCAAC	1.35
ATTACGGTA	1.14
TTCATTAGG	0.985
GAGTTAGACT	0.966
CTCTCGTAGT	0.987
TAGGTATCTC	0.983
ACGATATTTT	1.12
TATGGACCTT	0.989
CTCCAATTAA	1.41
GACTGAAGTA	1.07
TATGAATCGA	0.979
CAGGGTTTG	1
CTCTCAGTAG	1.21
TTACCTGCTG	1.04
TCTTGTCGG	0.917
CCATGCATTA	1.34
TTCCCCTTCA	1.78
GTGCAAAC	1.06
TTTAAGAGTT	1.04

Sequence	switch fluorescence ratio
GTAATTTCCC	1.03
CAAGCTTGAG	1.07
TACACCGGAT	1
GTCATTTGCT	0.984
AGGGCTTCCA	1.03
ACCTTTCAGC	1.25
GGGGCGGATC	0.958
GGGTGCGCTA	0.972
TTATCCATCC	1.11
AAATTATTAT	0.991
CAAGGTCCGG	0.995
CAGCTTCGGA	1.31
GGCAATGGGT	1.05
TGCGGTGGTA	1.02
GGCGAAACCC	1.03
TGGGCTTAAT	0.967
CAATTCCAAC	0.968
GATAAGGGAC	1.06
TTCCGTGTCC	1.08
TTAGCATTGA	1.09
TAGAGGATAG	0.99
TTCGGTCGTT	0.983
GAGGTTGTTG	0.999
CCCGAACCCG	1.04
TAACACTTT	0.994
CAATAGAAGG	0.956

Sequence	switch fluorescence ratio
GTAAGCTTGT	1.02
GTGAAACCTT	1.2
TAGAAGGGAG	0.998
TCGAGATAAC	1.02
TTTTAAAACC	1.03
AATCAAAGGT	1.03
GTTCACGATT	0.971
TGTCCTAGGG	1.01
CGATTAGAGA	0.971
GAATCGATGT	1.05
ACATTGTGTT	1.01
TGGATATGC	1.03
ATTGATCCGA	0.974
TGCCCAGTCC	0.966
TGGGGATTCG	0.966
CAGATATGAG	1
AGTATGTCTG	1.12
TGACGATCCA	1.12
TGAGAAGGT	0.951
AAAGTTGAAC	0.953
CAATCATCTT	1.01
CACGAGCACC	1.31
AAGTAAGGGT	1.01
TGAGGTTGT	0.997
ATGTTTAGTT	1.02
GTCTTGCGCT	1.01

Sequence	switch fluorescence ratio
TGCACAGTG	1.06
CAGCGGTCGG	0.984
GGAGGACAGT	0.986
TTAACCCCTG	1.03
CGGTTAAATG	1.04
TTGCCAAGCG	0.991
ACTTACTCGT	1.17
TTGTTGGGT	1
GGACTACTTG	0.94
TGGTAGATCT	0.966
GGGTGGCGG	1
TCGCGCTTCC	2.07
GGTCGAATCA	0.998
CATAGTTCCG	0.987
GAGTAATTCC	0.996
AAGTAGCGAC	1.03
AGTACTTCCG	1
TGCGGTCGGG	0.996
CACGGTAGTT	1.01
ATTCACTGTG	1
CGGGACTAGC	0.963
ACTGAATGTT	1.04
TGGTTGCTA	0.977
GGAAACAGG	0.983
ATCCCTAATG	1.02
GGTTCGCAGG	1.02

Sequence	switch fluorescence ratio
AGCCTCCGGA	1.28
AGATAAGTAA	1.02
ACAGGAATGG	1.03
ATATCCCCAG	1.27
TATATGCGGT	0.967
GTGCTAGGAG	1.02
GGAGTACACT	1.03
CATTATACGG	1.04
TGAATTGGTT	0.976
GCACCGGGCC	1.05
GCTAGCCTCC	1.34
CCCTGCGTCT	1.02
CCACTACTCT	1.18
ACCAGGGATA	1.04
CGAATCTGTG	0.954
ACGAGTAAGA	1.02
TGGTAATGCT	1.01
TGACTCGACC	1.09
CGGGTTGGCC	1
AGGGATTCTG	0.974
GGTGCCCCAG	1.18
AGTCCACGA	1.08
CGGAAAGTTC	1
TATTGGTAGT	1.01
ATGTTATTAA	0.96
ATGGCGTTTG	1.02

Sequence	switch fluorescence ratio
GCAAGCCCGG	1.06
GATGGCACAG	1
TCATAGGGAT	1.02
TTGGAAATAG	1.02
TGGGACCCCG	1.04
CGCTAAAAAA	1.62
TTGTTCCATG	0.992
TTTTGAGAGT	1.02
TAGGAACACG	1.02
CCGGGGCGGT	1.17
CCTAGTTGTT	1.04
ATGGTTCGCT	0.949
TCCAACGGAA	1.32
TTGGCTTTAC	1.16
GCTCTCAGTG	1.08
TCCAAAGCAC	4.31
CCTATGCAAG	4.74
AGCTTAGTCC	1.15
AAGTGCGAGC	1.06
